# Experimental data: the supplement of paper PMC7826260
# The other results are listed elsewhere or left out. Each Rep nickase domain was tested in vitro on the same pool of single strands (3 µM enzyme, 1 h, 37 °C); shown is the middle of each 90-letter strand. The score is log2 (uncut reads / reads without enzyme); more negative means more cut, near 0 not cut, and no call is made. Reads are scaled to the total; uncut strands gain when others are lost, and binding without cutting may add a little.
# Assays:
# Test in all cases: uncleaved DNA left, log2 of reads against the no-enzyme library (log2 ratio); higher = less cleavage (more negative = more Rep cleavage of the k-mer); sequences stand for … in CTCGTCCG…ACCGGAGA
# [1] = tested on: T1, Rep nickase domain of Muscovy duck circovirus
# T1 sequence (residues 1-111, tag not shown): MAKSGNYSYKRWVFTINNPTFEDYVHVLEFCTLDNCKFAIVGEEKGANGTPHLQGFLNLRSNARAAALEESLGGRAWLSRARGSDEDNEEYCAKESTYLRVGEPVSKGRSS
# Method: (§1)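 A pool of 90-nt single-stranded DNAs with seven random bases just before the constant AC of the nick site (name = the seven bases) was cut by 3 µM recombinant His6-SUMO-tagged Rep nickase domain (300 nM DNA, 50 mM HEPES pH 8.0, 50 mM NaCl, 1 mM MnCl2, 1 h, 37 °C, three replicates). Uncut DNA was amplified and sequenced.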
# [2] = tested on: T2, Rep nickase domain of banana bunchy top virus
# T2 sequence (residues 1-94, tag not shown): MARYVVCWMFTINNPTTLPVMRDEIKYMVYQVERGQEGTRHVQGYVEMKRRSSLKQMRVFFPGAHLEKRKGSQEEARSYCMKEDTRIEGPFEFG
# Method: as §1
# [3] = tested on: T3, Rep nickase domain of cabbage leaf curl virus
# T3 sequence (residues 1-116, tag not shown): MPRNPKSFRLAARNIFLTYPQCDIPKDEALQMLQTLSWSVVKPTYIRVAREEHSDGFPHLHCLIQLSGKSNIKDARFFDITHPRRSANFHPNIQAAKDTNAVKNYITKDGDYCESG
# Method: as §1
# [4] = tested on: T4, Rep nickase domain of chickpea chlorotic dwarf virus
# T4 sequence (residues 1-124, tag not shown): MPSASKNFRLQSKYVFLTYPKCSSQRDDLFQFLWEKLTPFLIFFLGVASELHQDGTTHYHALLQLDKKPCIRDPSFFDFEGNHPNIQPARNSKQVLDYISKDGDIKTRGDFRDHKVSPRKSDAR
# Method: as §1
# [5] = tested on: T5, Rep nickase domain of faba bean necrotic yellows virus
# T5 sequence (residues 1-98, tag not shown): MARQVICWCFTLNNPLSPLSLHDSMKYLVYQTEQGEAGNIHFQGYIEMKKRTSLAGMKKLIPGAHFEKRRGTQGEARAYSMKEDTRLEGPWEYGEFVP
# Method: as §1
# [6] = tested on: T6, Rep nickase domain of maize striate mosaic virus
# T6 sequence (residues 1-117, tag not shown): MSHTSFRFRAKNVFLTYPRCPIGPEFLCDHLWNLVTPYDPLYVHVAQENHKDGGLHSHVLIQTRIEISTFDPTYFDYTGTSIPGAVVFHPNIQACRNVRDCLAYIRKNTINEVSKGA
# Method: as §1
# [7] = tested on: T7, Rep nickase domain of porcine circovirus 2
# T7 sequence (residues 2-116, tag not shown): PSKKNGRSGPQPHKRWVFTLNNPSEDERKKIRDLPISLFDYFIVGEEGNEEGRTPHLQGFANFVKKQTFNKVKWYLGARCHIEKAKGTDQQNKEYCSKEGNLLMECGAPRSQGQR
# Method: as §1
# [8] = tested on: T8, Rep nickase domain of tomato golden mosaic virus
# T8 sequence (residues 1-124, tag not shown): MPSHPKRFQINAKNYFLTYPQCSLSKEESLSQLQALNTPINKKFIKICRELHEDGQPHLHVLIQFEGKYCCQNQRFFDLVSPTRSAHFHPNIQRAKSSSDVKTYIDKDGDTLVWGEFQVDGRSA
# Method: as §1
# [9] = tested on: T9, Rep nickase domain of tomato yellow leaf curl virus
# T9 sequence (residues 1-136, tag not shown): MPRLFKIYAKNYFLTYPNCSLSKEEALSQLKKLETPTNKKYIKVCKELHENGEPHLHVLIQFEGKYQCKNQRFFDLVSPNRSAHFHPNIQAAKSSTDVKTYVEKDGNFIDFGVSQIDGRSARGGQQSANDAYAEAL
# Method: as §1
# [10] = tested on: T10, Rep nickase domain of wheat dwarf virus
# T10 sequence (residues 1-137, tag not shown): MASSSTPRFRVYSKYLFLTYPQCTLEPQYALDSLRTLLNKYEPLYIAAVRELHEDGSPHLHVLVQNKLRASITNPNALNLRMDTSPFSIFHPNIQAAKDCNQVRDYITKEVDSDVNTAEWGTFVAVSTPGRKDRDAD
# Method: as §1
Sequence,uncleaved DNA left (log2) [1],uncleaved DNA left (log2) [2],uncleaved DNA left (log2) [3],uncleaved DNA left (log2) [4],uncleaved DNA left (log2) [5],uncleaved DNA left (log2) [6],uncleaved DNA left (log2) [7],uncleaved DNA left (log2) [8],uncleaved DNA left (log2) [9],uncleaved DNA left (log2) [10]
CGTGTCC,-0.0659,-0.0394,0.0923,0.109,-0.038,0.268,-0.151,-0.0245,-0.0151,0.0182
GTTAGAC,0.00345,-0.00633,0.333,1.03,0.0207,1.64,0.0633,0.0594,-0.0104,0.0131
ACGCTTA,-0.165,-0.196,-0.269,-1.14,-0.0613,-0.572,-0.0478,0.152,-0.0969,0.0277
TTCATTA,-0.153,-0.149,0.0564,-0.796,-0.0834,-0.297,-0.272,-0.157,-0.206,-0.0758
TGGCAAA,0.00339,0.118,0.343,0.894,-0.0584,0.679,0.132,-0.0389,0.00498,0.241
GCTTCAT,0.0165,0.0652,0.197,0.62,-0.0911,0.683,-0.201,0.034,0.0701,0.111
GCCCACG,0.19,0.0905,-0.356,-0.0657,0.179,-0.535,0.165,0.167,0.0893,0.0187
CACGAGA,-0.0422,-0.0606,0.676,1.43,0.0227,0.944,0.0269,-0.0152,-0.147,-0.0218
GACGAAG,-0.0435,-0.101,-0.153,-0.0465,-0.00452,-0.715,-0.0532,0.0885,-0.0833,-0.0703
GACGGAA,0.157,0.0367,0.404,0.958,0.0933,1.33,0.118,0.0782,-0.0351,0.106
GTTTTTG,0.0969,0.0694,0.222,0.521,0.123,0.53,0.16,0.148,0.0861,0.134
GATTGCC,-0.00539,-0.0228,-0.558,-0.419,-0.0218,-0.987,0.0767,-0.0559,0.0118,-0.154
CAGGCTG,0.00107,0.103,0.271,1.38,0.0724,1.71,0.116,0.0703,-0.119,-0.0711
TGACGGA,-0.043,-0.154,0.0379,0.325,-0.111,0.332,-0.00609,-0.0373,-0.189,-0.00141
GCTTGCT,-0.099,-0.0238,-0.44,-0.44,-0.087,-0.874,-0.505,-0.0872,0.052,-0.0807
TTTTGTT,-3.23,-1.63,-1.02,-2.6,-0.198,-1.19,-3.22,-0.478,-0.154,-1.4
CCATTCG,-0.0938,-0.109,-0.165,1.29,-0.0393,0.9,0.1,-0.113,0.168,-0.184
ATCCGAT,-0.128,-0.0575,0.181,0.6,-0.0446,0.457,-0.0217,-0.0335,-0.0216,0.0523
GCGCCGG,0.0363,0.0598,0.209,0.73,-0.154,1.3,0.104,-0.00799,-0.195,-0.00982
CTCTAGG,-0.0575,0.0153,0.201,1.2,0.0564,0.881,0.107,0.0787,-0.0724,-0.0248
CTCTATT,-3.2,-2.82,-1.68,-3.16,-0.17,-1.16,-3.47,-0.372,-0.0483,-0.556
GCTAGCC,0.0329,0.0787,0.0962,0.505,0.0145,-0.102,0.0623,0.0354,0.0135,-0.0958
GGCTGTG,0.0748,0.0396,-0.0135,-0.0116,-0.00276,-0.272,0.0533,0.0784,0.0468,-0.0646
ACGGGAT,0.0204,-0.0225,0.271,1.5,-0.0761,1.89,0.313,0.2,-0.163,-0.092
TCATGCC,0.0938,0.0135,-0.46,-0.525,0.105,-1.05,0.207,-0.0495,0.0931,-0.0454
CCTTGTA,-0.14,0.0455,-0.191,-1.15,-0.0571,-1.15,-0.242,-0.00615,0.0203,-0.102
TCATCTA,-0.175,0.00521,0.0299,-1.27,-0.0514,-0.498,-0.217,-0.0745,-0.068,0.0793
GTCACTT,0.0454,0.0483,0.197,0.528,-0.0721,1.52,-0.0338,0.00442,-0.0249,0.0102
GACCAAC,0.0051,0.0318,0.105,-0.0249,-0.018,0.276,-0.0104,-0.00597,-0.047,0.0834
ACATCTA,-0.026,0.00793,-0.224,-1.35,-0.053,-0.754,-0.0105,0.00858,-0.0523,-0.0223
